# Source: the supplement of paper PMC4166925
# ± gives the standard deviation of the averaged measurements. Over roughly 33,000 sequences, “E-score (dimensionless, -0.5 to 0.5)” has its median near -0.046; the highest 2% begin near 0.36. This is one part of the list.
# System: T1, SpTbr T-box DNA-binding domain (GST fusion)
# T1 sequence: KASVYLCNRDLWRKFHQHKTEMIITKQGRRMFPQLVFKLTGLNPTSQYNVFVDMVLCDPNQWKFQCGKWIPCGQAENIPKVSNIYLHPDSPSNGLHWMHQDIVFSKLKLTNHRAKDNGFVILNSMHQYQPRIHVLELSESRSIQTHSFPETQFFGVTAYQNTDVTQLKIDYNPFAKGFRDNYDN
# Assay: PBM E-score of 8-mer (E-score (dimensionless, -0.5 to 0.5)); Tbr is Tbrain of the sea star Patiria miniata (Pm) or the sea urchin Strongylocentrotus purpuratus (Sp); higher = stronger binding preference; most listed sequences are background and not binding sites
# Conditions: the construct has about 5 more residues each side
# Procedure, shortened: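 Using the Universal PBM Analysis Suite, every ungapped 8-mer received an enrichment E-score averaged over duplicate arrays. Probe intensities came from double-stranded Universal Agilent oligonucleotide arrays incubated with 200 nM GST-fused Tbr T-box DNA-binding domain in PBS (pH 7.5). That protein was expressed in BL21 E. coli at 20 °C and purified by glutathione affinity chromatography.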
row,Sequence,PBM E-score of 8-mer
1,TAAATGTA,-0.0999 ± 0.021
2,CAAGCTTC,-0.215 ± 0.013
3,ACGGAACA,-0.163 ± 0.11
4,ACCGGCTG,-0.341 ± 0.076
5,CTTACTGC,0.0114 ± 0.027
6,ACCGCGAA,0.313 ± 0.022
7,GCGACGTA,-0.165 ± 0.025
8,CATACCCC,-0.106 ± 0.031
9,GTTATCAA,0.138 ± 0.053
10,CCAATAAC,-0.0379 ± 0.13
11,GGTCATAC,-0.0253 ± 0.019
12,GCCCCTCA,-0.0552 ± 0.047
13,AACGTGAA,0.0888 ± 0.008
14,ATCAGCGA,0.125 ± 0.096
15,CTTATGGA,-0.213 ± 0.0064
16,ATCGATCG,0.0659 ± 0.059
17,ATGATGGA,-0.179 ± 0.029
18,AATAGCTC,-0.111 ± 0.0098
19,CGACACGC,0.159 ± 0.07
20,CAGGCTGG,-0.19 ± 0.0044
21,CTAATCCC,-0.263 ± 0.0044
22,AAGCACAC,0.247 ± 0.013

row,Sequence,PBM E-score of 8-mer
1,ATCCCGGC,-0.278 ± 0.07
2,CTATCGGA,-0.103 ± 0.016
3,AAAGCGCG,0.308 ± 0.038
4,CTAGACCC,0.0375 ± 0.0037
5,ATTTCCGA,-0.0828 ± 0.028
6,TGTTTCAA,-0.0693 ± 0.047
7,GCAATATA,-0.0884 ± 0.05
8,AAGTCTGC,0.11 ± 0.015
9,AAACAGCA,0.0649 ± 0.055
10,AACAAAGA,0.00197 ± 0.012
11,CTGGAGTA,-0.0122 ± 0.001
12,CTGTGCGA,0.27 ± 0.022
13,CGTGAGTC,0.13 ± 0.048
14,GCTACGGA,-0.1717 ± 0.00057
15,CAACACGC,0.203 ± 0.0098
16,CGCCCATC,-0.0428 ± 0.069
17,AGACTTCG,-0.0905 ± 0.069
18,ACGCCTAA,0.249 ± 0.0043
19,ACCCCCAA,0.126 ± 0.023
20,AAACCTCC,-0.246 ± 0.0086
21,AGTTCTGC,-0.323 ± 0.021
22,ACTAATAA,-0.0725 ± 0.085

row,Sequence,PBM E-score of 8-mer
1,CGCGTACG,0.0774 ± 0.069
2,CGATCTAG,-0.0149 ± 0.058
3,ACTCCGAT,-0.0758 ± 0.0044
4,ATGGGCTC,-0.162 ± 0.028
5,AGACCTTG,-0.19 ± 0.022
6,AGGTTGAG,-0.09 ± 0.024
7,TGTCCGAA,-0.0937 ± 0.021
8,ATAATGAC,-0.00677 ± 0.0048
9,CTGCGCCA,0.117 ± 0.055
10,AACTTCGC,0.0929 ± 0.044
11,ACAGGAGC,0.0435 ± 0.11
12,AACCTCTA,-0.187 ± 0.065
13,CTGTTTTC,0.0255 ± 0.037
14,GTGCGGTA,0.129 ± 0.033
15,CCAGCAGG,-0.149 ± 0.021
16,CTTACTCA,-0.0364 ± 0.05
17,AGCTCAAT,-0.176 ± 0.04
18,AGTAGAGC,-0.0394 ± 0.027
19,AACTGGAG,-0.0594 ± 0.019
20,AGGTCTGC,-0.314 ± 0.03
21,ATAGAAAC,-0.238 ± 0.0062
22,AACGTATC,-0.117 ± 0.03

row,Sequence,PBM E-score of 8-mer
1,CCGGTACC,-0.145 ± 0.0012
2,GTAAGGAC,-0.131 ± 0.13
3,GTAACGGA,-0.0633 ± 0.048
4,AAGAGCTT,-0.291 ± 0.062
5,GTTTAAAC,-0.0757 ± 0.07
6,ACAGGACG,0.0443 ± 0.025
7,AATACTAC,-0.16 ± 0.02
8,AGTAGACG,0.0449 ± 0.043
9,ACGCTATC,0.121 ± 0.026
10,GAAGTGTA,0.304 ± 0.0081
11,CCTCCGTC,-0.16 ± 0.014
12,GATTCCAA,-0.0169 ± 0.036
13,GCGTGCCA,0.128 ± 0.01
14,ATACTATC,-0.298 ± 0.062
15,CCCAGGAC,-0.106 ± 0.0028
16,CGTGTAAG,0.134 ± 0.013
17,TATGACCA,-0.0519 ± 0.06
18,GGCTAACC,0.126 ± 0.029
19,GCTCGTCA,0.018 ± 0.042
20,AAACTAAA,-0.137 ± 0.024
